Out of some 410,000 compounds screened, about 7,200 (1.8%) were called active. Inconclusive results, whose numbers are uncertain, are shown with a selection of clear calls. Calls come from the whole dose curve; as a rule, active = well fitted activation curve with a large enough effect; inconclusive = small, poorly fitted or top-dose-only effect, or another doubt; inactive = no such curve, though single readings can be large or run the other way. A potency beside an inconclusive call is a rough fit, not a confirmed value.
Test: qHTS of TDP-43 Inhibitors; note: nearly all actives have a fitted effect of over 50% in size; for growth rescue (activation): % of control where 0% means no effect
Details: TDP-43 expressing yeast growth rescue, BacTiter-Glo, 24 h; growth rescue (activation): at 46.1 µM (top of the series) unless noted
Summary of the method: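 Growth rescue of TDP-43-toxic yeast measured as ATP luminescence (BacTiter-Glo). Cells grown to mid-log in raffinose, induced in galactose at OD600=0.02, exposed to compound 24 hr at 30 deg C.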
Potency is the fitted concentration of half-maximal effect; tags give direction and shape of the fitted curve.

Potency, inconclusive:
O=[N+]([O-])c1ccc(-n2nncc2-c2ccc(Cl)cc2)cc1 12.6 µM [activator, single point]
CC(C)c1cccc(C(C)C)c1NC(=O)OC1CCCCC1 1.12 µM [activator, full curve]
O=c1c2ccccc2nnn1-c1ccccc1[N+](=O)[O-] 11.2 µM [activator, partial curve]
Cc1cc2c(cc3c(SCc4ccc(Cl)cc4)nncn32)o1 0.282 µM [activator, full curve, poor fit]
CC(c1nnc(SCC(=O)N2CC(=O)Nc3ccccc32)n1Cc1ccccc1)N(C)C (stereo unspecified) 3.55 µM [activator, full curve]
Cc1ccc(NC(=O)C2C(c3ccccc3)C=CC(c3ccccc3)C2C(=O)O)cc1 (stereo unspecified) 31.6 µM [activator, single point]
COc1ccc(NC(=O)c2cccn(CC=C(C)C)c2=O)cc1 3.55 µM [activator, partial curve]
O=C1C=C(c2ccc3cc[nH]c3c2)C[C@@H](c2ccc3c(c2)OCO3)C1 22.4 µM [activator, single point]
O=C(Cc1ccc(NC(=O)C2CCCN(C(=O)C3CCC3)C2)cc1)Nc1cccc(C(=O)N2CCCCC2)c1 (stereo unspecified) 35.5 µM [activator, partial curve, poor fit]
CN1CC(=O)N2C(c3ccc(Cl)cc3)c3[nH]c4ccccc4c3C[C@H]2C1=O (stereo partly specified) 35.5 µM [activator, partial curve, poor fit]
COc1ccc(C)cc1-n1cnc2cc(C(=O)NC3CCCCCC3)ccc21 35.5 µM [activator, single point]
COc1ccccc1Cc1c(-c2ccc(F)cc2)nc2c(C)cc(Br)cn12 35.5 µM [activator, partial curve, poor fit]
Cc1nn(CCC(N)=S)c2nc(-c3cccs3)cc(C(F)(F)F)c12 11.2 µM [activator, partial curve]
OC(c1cc(F)cc(Cl)c1)c1ncc(-c2ccc3ccccc3c2)[nH]1 (stereo unspecified) 17.8 µM [activator, single point]
Oc1ccc2sc(-c3ccccc3O)c(-c3ccc(OCCN4CCCCC4)cc3)c2c1 6.31 µM [activator, partial curve, poor fit]
CC(=O)c1cccc(Nc2ccc(-c3ccccc3F)nn2)c1 7.94 µM [activator, full curve]
Cc1ccnc(Nc2cccnc2)n1 0.562 µM [activator, full curve]
Cc1nc(SCC(O)CO)c([N+](=O)[O-])[nH]1 (stereo unspecified) 0.562 µM [activator, full curve, poor fit]
COc1ccccc1NC(=O)c1csc2c1CCC(C)C2 (stereo unspecified) 11.2 µM [activator, single point]
COc1ccc(OC)c(C(=O)COC(=O)c2ccccc2O)c1 8.91 µM [activator, partial curve]
CC(C)OCCCNC(=O)c1ccc(Cn2c(=O)c3cccn3c3cccnc32)cc1 35.5 µM [activator, single point]
Cc1cc(S(=O)(=O)Nc2nc(CN3CCOCC3)nc3sc4c(c23)CCC4)ccc1F 14.1 µM [activator, single point]
COc1ccc2[nH]c(C)c(CCNC(=S)Nc3cc(C)ccc3C)c2c1 2.82 µM [activator, partial curve]
CCOc1ccc2nc(N(Cc3cccnc3)C(=O)C3CCCCC3)sc2c1 5.62 µM [activator, single point]
Cc1ccc(C2CCN(C(=O)Nc3ccc(Cl)c(Cl)c3)C2)cc1 (stereo unspecified) 11.2 µM [activator, partial curve]
O=C(O)c1ccccc1CSc1nc2ccccc2o1 15.8 µM [activator, single point]
CN(CCc1ccccc1)C(=O)c1ccc(NC(=O)Cc2cccc(NC(=O)C3CCN(C(=O)C4CCCC4)CC3)c2)cc1 6.31 µM [activator, single point]
CCOc1ccc2nc(NC(=O)C3CCCO3)sc2c1 (stereo unspecified) 11.2 µM [activator, partial curve]
CCN(CC)Cc1c(C(=O)N/N=C/c2ccc(OCc3ccccc3C)cc2)nnn1-c1nonc1N 11.2 µM [activator, partial curve]
O=C1NC2(CCCCCC2)Oc2ccccc21 12.6 µM [activator, single point]
N#Cc1ccccc1OCC(=O)NC1CCCCC1 3.55 µM [activator, full curve, poor fit]
Cc1ccc(NC(=O)c2nc[nH]c2C(=O)NCCCCCNC(=O)OC(C)(C)C)cc1 35.5 µM [activator, single point]
O=C(O)C(Cc1ccc(F)cc1)c1ccccc1 (stereo unspecified) 25.1 µM [activator, single point]
COc1ccc(S(=O)(=O)Nc2ccc(F)c(F)c2)cc1Cl 17.8 µM [activator, single point]
COc1ccc(-c2[nH]ncc2C(=O)NCc2cccc(OC)c2)cc1 6.31 µM [activator, partial curve]
Cc1c(C(=O)N2CCN(S(=O)(=O)c3ccc(F)cc3)CC2)oc2ccccc12 35.5 µM [activator, single point]
COc1ccccc1Cc1noc(COc2cccc(C)c2C)n1 20 µM [activator, single point]
O=[N+]([O-])c1cc2c(cc1/C=N/Nc1nc(Nc3ccccc3)nc(N3CCCCC3)n1)OCO2 17.8 µM [activator, single point]
Clc1cccc(Cc2c(C3CCCCC3)nc3ccc(Br)cn23)c1 15.8 µM [activator, single point]
CCc1ccc(NC(=O)N(Cc2c[nH]c3ccccc23)C2CCCCC2)cc1 35.5 µM [activator, single point]
COc1cc(C=O)ccc1OCCSc1ccc(Cl)cc1 17.8 µM [activator, single point]
Cc1ccc(-n2c(=O)c3c(cnn3C)n(Cc3ccc(Cl)cc3)c2=O)cc1 12.6 µM [activator, partial curve]
Cc1cc(NC(=O)CCc2nc3cccnc3n2Cc2cccs2)ccc1Br 6.31 µM [activator, partial curve]
O=C(CCn1nc(-c2ccc(Cl)cc2)ccc1=O)N1CCN(c2ccccc2)CC1 35.5 µM [activator, single point]

Potency, active:
COc1ccc(-n2cnc3cc(C(=O)NC4CCCCCC4)ccc32)cc1 35.5 µM
O=C(CSc1nccn1-c1cccc(Cl)c1)Nc1cccc2ccccc12 15.8 µM
CCCCn1nnc(NC(=S)NC(=O)c2cccs2)n1 35.5 µM
Cc1ccc(NC(=O)c2sccc2-n2cccc2)c(C)c1 22.4 µM
Cc1nn(-c2ccccc2)c(Cl)c1CN(C(=O)CCl)c1cccc2ccccc12 17.8 µM
NC(=S)c1ccc(OCCCc2ccccc2)cc1 10 µM
CN(c1ccccc1)c1cc(Br)nc(Br)c1 14.1 µM

Growth rescue (activation), inactive:
Cc1cccc(Nc2c(-c3ccsc3)nc3nc(C)cc(C)n23)c1 18.9%
Cc1ccn2c(=O)cc(COc3ccc(NC(=O)COc4ccc(C)c(C)c4)cc3)nc2c1 21.1%
NC(=O)[C@@H]1CC2(CC(c3cccc(NC(=O)COc4ccc(Cl)cc4)c3)=NO2)CN1C(=O)c1ccccc1 (stereo partly specified) 5.2%
Cn1c(=O)c2c(-c3ccc(Br)cc3)n(Cc3ccc(F)cc3)cc2n(C)c1=O 5.78%
CCN(CC)C(=O)Cn1c(=O)n(CC2CCC(C(=O)NC)CC2)c(=O)c2sccc21 (stereo unspecified) -11%
CCCC(=O)N1CCc2cc(OC)c(OC)cc2C1COc1ccc(C(=O)OC)cc1 (stereo unspecified) 26.9%
CC(C)CC(=O)Nc1ccccc1N1CCCC1 -18.3%
O=C(CN1CCCC1)Nc1ccccc1Sc1ccc(Cl)cc1 -7.56% [at 9.22 µM]
CCC1S/C(=N\S(=O)(=O)c2cccs2)N(C2CCCCC2)C1=O (stereo unspecified) 11.8%
COc1cccc(CNCc2cccn2-c2nnc(N3CCN(c4ccccc4)CC3)s2)c1 22.3%
CC(C)C[C@H](N)c1nnc(SCC(=O)Nc2ccc(Br)cc2)o1 -18.2%
CC(C)(C)OC(=O)CNC(=O)c1[nH]cnc1C(=O)NC1CCN(C(=O)OC(C)(C)C)CC1 4.35%
Cc1cccn2c(N)c(-c3ccccc3)nc12 4.25%
CC1CCCCN1C(=O)COC(=O)c1ccc(N2CCCC2=O)cc1 (stereo unspecified) 1.98%
CCN(C(=O)CCNC(=O)Cn1cnc2ccccc2c1=O)c1cc(OC)ccc1OC 3.07%
CCc1ccccc1NC(=O)CSc1nnc(-c2ccc(OC)cc2)s1 14%
COC(=O)Cc1ccc2sc(-c3ccccc3)nc2c1 16.2%

Growth rescue (activation), inconclusive:
O=C(Oc1cccc2cccnc12)c1cccs1 -94.1% [activator]
CCCCOc1ccc(C(=O)Nc2ccc(N3CCN(C(C)=O)CC3)cc2)cc1 32% [activator]
O=[N+]([O-])c1cc(Br)ccc1NS(=O)(=O)c1ccccc1 -66.4% [activator]

— PubChem BioAssay AID652104 (National Center for Advancing Translational Sciences (NCATS), 2013)
